Results published in PubChem BioAssay (NCI).
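Each compound was tested at five concentrations against cells in 96-well plates for 48 hours. GI50: concentration for 50% inhibition of growth.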 The source holds more than one record for some entries. Only these are listed. The source may hold further records. For part of these data: A record mostly stands for its own series of concentrations, not given here; some values may only mark the edge of a range. For part of these data: Values that stand side by side are repeats across runs, samples, wells, individuals or studies. Records carry a tag for their origin. Letters hold for one entry only.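 The concentration for full growth arrest is given as TGI.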

Legend:
Experiment in all cases: NCI tumour cell line growth inhibition, 48 h
BT-549 breast = test system: BT-549 breast
CCRF-CEM leukemia = test system: CCRF-CEM leukemia
DU-145 prostate = test system: DU-145 prostate
HCT-15 colon = test system: HCT-15 colon
HOP-62 NSCLC = test system: HOP-62 NSCLC
HS 578T breast = test system: HS 578T breast
K-562 leukemia = test system: K-562 leukemia
NCI-H460 lung = test system: NCI-H460 lung
NCI/ADR-RES ovarian = test system: NCI/ADR-RES ovarian
OVCAR-5 ovarian = test system: OVCAR-5 ovarian
OVCAR-8 ovarian = test system: OVCAR-8 ovarian
PC-3 prostate = test system: PC-3 prostate
SF-268 CNS = test system: SF-268 CNS
SF-295 CNS = test system: SF-295 CNS
T-47D breast = test system: T-47D breast
ACHN renal = test system: ACHN renal
HOP-18 NSCLC = test system: HOP-18 NSCLC
MOLT-4 leukemia = test system: MOLT-4 leukemia
NCI-H23 lung = test system: NCI-H23 lung
NCI-H522 lung = test system: NCI-H522 lung
OVCAR-3 ovarian = test system: OVCAR-3 ovarian
SK-MEL-2 melanoma = test system: SK-MEL-2 melanoma
SK-OV-3 ovarian = test system: SK-OV-3 ovarian
COLO 205 colon = test system: COLO 205 colon
CAKI-1 renal = test system: CAKI-1 renal
EKVX NSCLC = test system: EKVX NSCLC
HCC-2998 colon = test system: HCC-2998 colon
HL-60(TB) leukemia = test system: HL-60(TB) leukemia
HT29 colon = test system: HT29 colon
IGROV1 ovarian = test system: IGROV1 ovarian
LOX IMVI melanoma = test system: LOX IMVI melanoma
M14 melanoma = test system: M14 melanoma
MALME-3M melanoma = test system: MALME-3M melanoma
MCF7 breast = test system: MCF7 breast
MDA-N = test system: MDA-N
NCI-H226 lung = test system: NCI-H226 lung
OVCAR-4 ovarian = test system: OVCAR-4 ovarian
P388/ADR leukemia = test system: P388/ADR leukemia
RPMI-8226 leukemia = test system: RPMI-8226 leukemia
SF-539 CNS = test system: SF-539 CNS
SK-MEL-28 melanoma = test system: SK-MEL-28 melanoma
SN12C renal = test system: SN12C renal
SNB-19 CNS = test system: SNB-19 CNS
SNB-75 CNS = test system: SNB-75 CNS
U251 CNS = test system: U251 CNS
UACC-257 melanoma = test system: UACC-257 melanoma

CN1CC[C@@H](c2c(O)cc(O)c3c(=O)cc(-c4ccccc4Cl)oc23)[C@@H](O)C1
TGI (BT-549 breast): 529 nM, 846 nM, > 11.8 µM
TGI (CCRF-CEM leukemia): 231 nM [1 test] and 7.58 µM [mean of 6 tests]
TGI (DU-145 prostate): 567 nM and > 41.2 µM
TGI (HCT-15 colon): 585 nM and > 47.1 µM
TGI (HOP-62 NSCLC): 308 nM, 295 nM, > 22.4 µM
TGI (HS 578T breast): 295 nM, 438 nM [1 test] and > 100 µM [mean of 3 tests]
TGI (K-562 leukemia): 746 nM [1 test] and > 75.1 µM [mean of 6 tests]
TGI (NCI-H460 lung): 333 nM and 32.5 µM
TGI (NCI/ADR-RES ovarian): 620 nM [1 test] and > 18.9 µM [mean of 3 tests]
TGI (OVCAR-5 ovarian): 298 nM, 470 nM, 3.1 µM
TGI (OVCAR-8 ovarian): 320 nM and > 46.7 µM
TGI (PC-3 prostate): 219 nM, 260 nM, 5.4 µM
TGI (SF-268 CNS): 331 nM, 472 nM, 10.2 µM
TGI (SF-295 CNS): 300 nM, 343 nM [1 test] and 14.6 µM [mean of 6 tests]
TGI (T-47D breast): 246 nM, 513 nM [1 test] and > 100 µM [mean of 4 tests]

C[C@@H]1C[C@@H](O)[C@]2(O)O[C@@H]3C[C@@]4(C=O)[C@@H](CC[C@@H]5[C@@H]4CC[C@]4(C)[C@@H](C6=CC(=O)OC6)CC[C@]54O)C[C@H]3O[C@@H]2O1
TGI (ACHN renal): 55.8 nM, 112 nM, 6.01 nM
TGI (HOP-18 NSCLC): 30.3 nM and 2.07 µM
TGI (MOLT-4 leukemia): 9.8 nM, 33.5 nM, 1.69 µM
TGI (NCI-H23 lung): 10.8 nM, 130 nM, 7.29 nM
TGI (NCI-H522 lung): 4.16 nM and 106 nM
TGI (OVCAR-3 ovarian): 4.77 nM and 52.8 nM
TGI (SK-MEL-2 melanoma): 27.4 nM, 226 nM, 500 nM
TGI (SK-OV-3 ovarian): 40.4 nM, 845 nM, 51.1 nM

CC(C)C[C@H](NC(=O)[C@H](Cc1cccc2ccccc12)NC(=O)N1CCOCC1)B(O)O
TGI (BT-549 breast): 4.31 nM and 1.77 µM
TGI (COLO 205 colon): 60.9 nM and > 100 µM
TGI (MOLT-4 leukemia): 8.26 nM and > 100 µM
TGI (SF-295 CNS): 13.3 nM and 2.47 µM

N#Cc1cn(C2OC(CO)C(O)C2O)c2ncnc(N)c12 (centres undefined)
TGI (BT-549 breast): 2.47 nM [sample A] and > 100 µM [sample B]
TGI (CAKI-1 renal): 91.2 nM [sample A, mean of 3 tests] and 1.1 µM [sample A, mean of 4 tests] and 548 nM [sample B, 1 test]
TGI (COLO 205 colon): 67.2 nM, < 45 nM [sample A] and 10.6 µM [sample B]
TGI (DU-145 prostate): 0.488 nM [sample A] and > 100 µM [sample B]
TGI (EKVX NSCLC): 2.84 µM, 1.02 µM [sample A] and > 100 µM [sample B]
TGI (HCC-2998 colon): 0.553 nM [sample A, 1 test] and 934 nM [sample A, mean of 2 tests] and 813 nM [sample A, mean of 5 tests] and 653 nM [sample B, mean of 2 tests]
TGI (HCT-15 colon): 0.768 nM [1 test] and 6.15 µM [mean of 5 tests]
TGI (HL-60(TB) leukemia): 703 nM, 51.9 nM, 969 nM [sample A] and 34.1 nM [sample B]
TGI (HOP-18 NSCLC): 1.59 µM and 135 nM
TGI (HOP-62 NSCLC): 0.582 nM [sample A, 1 test] and 1.41 µM, 696 nM [sample A, mean of 4 tests] and > 100 µM [sample B, 1 test]
TGI (HT29 colon): 106 nM [sample A, 1 test] and > 20.9 µM [sample A, mean of 3 tests] and > 100 µM [sample B, 1 test]
TGI (IGROV1 ovarian): 1.21 µM, 144 nM [sample A] and > 100 µM [sample B]
TGI (K-562 leukemia): 0.21 nM [sample A, 1 test] and 637 nM [sample A, mean of 3 tests] and 432 nM [sample A, mean of 5 tests] and > 100 µM [sample B, 1 test]
TGI (LOX IMVI melanoma): 3.63 µM, < 45 nM [sample A] and > 100 µM [sample B]
GI50 (M14 melanoma): 0.178 nM [sample A, 1 test] and 18.5 nM [sample B, 1 test]
TGI (MALME-3M melanoma): 606 nM, 176 nM [sample A] and > 100 µM [sample B]
TGI (MCF7 breast): 1.92 µM, > 450 µM [sample A, mean of 3 tests] and > 100 µM [sample B, mean of 2 tests]
TGI (MDA-N): 1.05 nM [sample A, 1 test] and > 100 µM [sample B, 1 test]
TGI (MOLT-4 leukemia): 186 nM, 2.72 µM [sample A] and 267 nM [sample B]
GI50 (NCI-H226 lung): 0.157 nM [1 test] and 53.3 nM [mean of 3 tests]
TGI (NCI-H226 lung): 1.51 µM, 811 nM [sample A] and > 100 µM [sample B]
TGI (NCI-H23 lung): 0.62 nM [sample A, 1 test] and 459 nM [sample A, mean of 4 tests] and 819 nM [sample A, mean of 5 tests] and 576 nM [sample B, mean of 2 tests]
TGI (NCI-H460 lung): 4.5 nM [sample A, 1 test] and > 312 µM [sample A, mean of 4 tests] and 5.8 µM [sample A, mean of 5 tests] and > 100 µM [sample B, mean of 2 tests]
TGI (NCI-H522 lung): 0.13 nM [sample A, 1 test] and 83.9 nM, 6.6 µM [sample A, mean of 4 tests] and 1.22 µM [sample B, 1 test]
TGI (NCI/ADR-RES ovarian): 2.3 nM [1 test] and 3.78 µM, 131 nM [mean of 4 tests]
TGI (OVCAR-3 ovarian): 0.884 nM, 110 nM, 390 nM [sample A] and > 100 µM [sample B]
TGI (OVCAR-4 ovarian): 942 nM [sample A, mean of 5 tests] and 59.6 nM [sample B, 1 test]
TGI (OVCAR-5 ovarian): 0.887 nM, 379 nM, 310 nM [sample A] and > 100 µM [sample B]
TGI (P388/ADR leukemia): > 450 µM [mean of 2 tests] and 45 nM [mean of 3 tests]
TGI (RPMI-8226 leukemia): 1.44 µM [sample A, mean of 3 tests] and 598 nM [sample A, mean of 5 tests] and > 100 µM [sample B, mean of 2 tests]
TGI (SF-268 CNS): 12.8 nM [sample A, 1 test] and 53.6 µM [sample A, mean of 3 tests] and > 100 µM [sample B, 1 test]
TGI (SF-295 CNS): 10.5 nM [sample A, 1 test] and 1.4 µM [sample A, mean of 4 tests] and 4.74 µM [sample A, mean of 5 tests] and 26.9 µM [sample B, mean of 2 tests]
TGI (SF-539 CNS): 19 nM, 5.92 µM, 4.76 µM [sample A] and 6.35 µM [sample B]
TGI (SK-MEL-2 melanoma): 0.235 nM, 142 nM, 107 nM [sample A] and 81.1 nM [sample B]
TGI (SK-MEL-28 melanoma): 155 nM [sample A, 1 test] and 5.43 µM [sample A, mean of 4 tests] and 963 nM [sample A, mean of 5 tests] and 18.1 µM [sample B, 1 test]
TGI (SK-OV-3 ovarian): 420 nM, 74.5 µM [sample A] and > 100 µM [sample B]
TGI (SN12C renal): 80.2 nM [sample A, 1 test] and > 38.4 µM [sample A, mean of 3 tests] and 5.42 µM [sample A, mean of 5 tests] and > 100 µM [sample B, mean of 2 tests]
TGI (SNB-19 CNS): > 288 µM [sample A, mean of 4 tests] and 6.42 µM [sample A, mean of 5 tests] and > 100 µM [sample B, mean of 2 tests]
TGI (SNB-75 CNS): 1.39 nM [sample A, 1 test] and 108 nM [sample A, mean of 4 tests] and 1.24 µM [sample A, mean of 5 tests] and > 100 µM [sample B, mean of 2 tests]
TGI (U251 CNS): 49.5 nM [sample A, 1 test] and > 380 µM [sample A, mean of 5 tests] and > 100 µM [sample B, 1 test]
GI50 (UACC-257 melanoma): 0.108 nM [1 test] and 53.8 nM [mean of 3 tests]
TGI (UACC-257 melanoma): 170 nM, 2.67 µM, 369 nM [sample A] and > 100 µM [sample B]
